Measurements: PubChem BioAssay AID1159614 (National Center for Advancing Translational Sciences (NCATS), 2016)
About 65 (0.1%) of roughly 45,000 compounds were called active. Calls come from the whole dose curve; as a rule, active = well fitted activation curve with a large enough effect; inconclusive = small, poorly fitted or top-dose-only effect; inactive = no such curve, though single readings can be large or run the other way. Some of the results follow.

Molecular target: Galactocerebrosidase (Homo sapiens) (UniProt P54803)
Chain of UniProt P54803 (P54803 whole entry, looked up): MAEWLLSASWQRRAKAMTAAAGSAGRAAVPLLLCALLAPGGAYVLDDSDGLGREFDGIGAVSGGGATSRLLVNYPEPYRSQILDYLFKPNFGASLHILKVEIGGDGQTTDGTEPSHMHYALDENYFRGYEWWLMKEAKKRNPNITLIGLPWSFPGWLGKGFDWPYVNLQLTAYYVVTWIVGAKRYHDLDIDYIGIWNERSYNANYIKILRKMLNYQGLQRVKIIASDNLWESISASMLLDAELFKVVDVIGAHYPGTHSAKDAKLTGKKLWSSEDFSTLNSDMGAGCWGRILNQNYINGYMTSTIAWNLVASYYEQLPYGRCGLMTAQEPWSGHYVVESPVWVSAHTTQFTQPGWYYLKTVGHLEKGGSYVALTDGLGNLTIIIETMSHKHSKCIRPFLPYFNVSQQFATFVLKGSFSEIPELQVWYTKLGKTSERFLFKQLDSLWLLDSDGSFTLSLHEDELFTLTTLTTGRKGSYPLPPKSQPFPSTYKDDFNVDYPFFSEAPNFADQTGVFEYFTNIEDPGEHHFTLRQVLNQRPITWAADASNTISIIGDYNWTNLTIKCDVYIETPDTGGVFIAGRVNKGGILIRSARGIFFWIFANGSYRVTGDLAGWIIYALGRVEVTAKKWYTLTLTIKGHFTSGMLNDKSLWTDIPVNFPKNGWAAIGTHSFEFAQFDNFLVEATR
Test: A Novel Cell-Based Assay to Identify Small Molecules for B -Galactocerebrosidase; note: 0% is about no effect; nearly all actives have a fitted effect of over 65% in size
Details: 145M-Twi-hGALC-G270D cells (Twitcher mouse brain line with human GALC G270D), HMU-beta-Gal fluorescence, 48 h; series mostly up to 57.5 µM; activation: at the top concentration
How it was run: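 Mutant human GALC (G270D), stably expressed in a Twitcher mouse brain cell line lacking endogenous GALC, is measured in live-treated cells via 6-hexadecanoylamino-4-methylumbelliferyl-β-galactoside hydrolysis (0.1 mM final, pH 5.2) with fluorescent detection.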

SMILES | activation
CCOc1ccc(CCNC(=O)CSCc2nc(-c3cccc(C)c3)oc2C)cc1OCC | inactive: -10.6%
Cc1cc2nn(-c3ccccc3)nc2cc1NC(=O)Cc1ccc(Cl)cc1 | inactive: -11.3%
CC(C)N(Cc1ccccc1)S(=O)(=O)c1ccc(N2CCCCS2(=O)=O)cc1 | inactive: 4.74%
CN(C)S(=O)(=O)c1ccc(C(=O)N(Cc2cccnc2)c2nc3c(F)cc(F)cc3s2)cc1 | inactive: -10.6%
O=C(O)c1ccccc1C(=O)Nc1ccc(S(=O)(=O)Nc2nccs2)cc1 | inactive: 0.826%
O=C(Cn1c(=O)c2cccn2c2ccc(F)cc21)NCc1cccc(Cl)c1 | inactive: -5.26%
CCOc1ccc(NC(=O)c2sc3nc(-c4ccc(OC)cc4)cn3c2C)cc1 | inactive: -11.7%
Cc1c(Cl)cccc1NC(=O)CSc1nc(=O)n(CCN2CCOCC2)c2c1CCC2 | inactive: -10.9%
Cc1ccccc1NC(=O)Cn1c(=O)n(CCCCCC(=O)NCc2ccc3c(c2)OCO3)c(=O)c2sccc21 | inactive: -15.5%
COc1ccc(-n2ccn(CC(=O)Nc3ccccc3C(F)(F)F)c(=O)c2=O)cc1OC | inactive: -19.6%
CC(=O)N1CCc2c(sc3c2c(=O)n(CCc2ccccc2)c(=O)n3Cc2ccc(F)cc2)C1 | inactive: -17.3%
COc1cc(NC(=O)C2CCCN(S(=O)(=O)c3cn(C)cn3)C2)cc(OC)c1 (centres undefined) | inactive: -5.2%
COc1ccc(-c2nsc(NC(=O)c3ccccc3Br)n2)cc1 | inactive: -7.38%
CCc1ccccc1NC(=O)CCc1c(C)nc2cc(-c3ccccc3)nn2c1C | inactive: -7.64%
CCOc1ccc(NC(=O)CCS(=O)(=O)c2cc3c4c(c2)CCN4C(=O)CC3)cc1 | inactive: -6.19%
Cc1ccc(Nc2ccc(N3CCN(C(=O)c4ccc([N+](=O)[O-])cc4Cl)CC3)nn2)cc1 | inactive: -18.1%
CC(=O)Nc1ccc(NCc2nnc3n2CCCCC3)cc1 | inactive: -8.88%
CCOC(=O)c1cc2c(=O)n3ccccc3nc2n(CC(C)C)c1=NC(=O)C(C)Oc1ccccc1 (centres undefined) | inactive: -6.7%
O=C(NC1CC(=O)N(c2ccc(Cl)cc2)C1)C(=O)c1c[nH]c2ccccc12 (centres undefined) | inactive: -0.575%
CC(=O)OC(C)OC(=O)C(C)c1ccc(-c2ccccc2)c(F)c1 (centres undefined) | inactive: -9.34%

SMILES | activation
Cc1nnc(N2CCN(C(=O)Nc3cc(F)ccc3F)CC2)c2nn(-c3ccc(Cl)cc3)c(C)c12 | inactive: -36.8%
Cc1cc(O)c(C(c2ccccc2)N2CCC(C)CC2)c(=O)n1Cc1ccco1 (centres undefined) | inactive: -19.5%
CN(C)c1ccc(C(CNC(=O)c2ccc(C(C)(C)C)cc2)N2CCCC2)cc1 (centres undefined) | inactive: -7.27%
Cc1cn2c(=O)cc(COc3ccc(NC(=O)c4ccc(C(C)(C)C)cc4)cc3)nc2s1 | inactive: -14.1%
COc1ccc(CNC(=O)CCc2c(C)nn(-c3ccc(N4CCOCC4)nn3)c2C)c(OC)c1 | inactive: 2.11%
CCC1=C(c2ccc(C)cc2)S(=O)(=O)N=C1N1CCC(C(=O)Nc2ccccc2C(=O)OC)CC1 | inactive: -12.9%
Cc1cccc(NC(=O)C2CCCN2S(=O)(=O)c2cccc3nsnc23)c1C (centres undefined) | inactive: -10.6%
CCN(C(=O)c1sc2nc3n(c(=O)c2c1C)CCCC3)c1ccccc1F | inactive: -11.7%
CC(=O)c1ccc(NC(=O)CSc2nnc3ccc(-c4ccc(F)cc4)nn23)cc1 | inactive: -9.58%
Cc1ccc(CCNC(=O)c2cc(-c3ccccc3)n[nH]2)cc1 | inactive: -14.1%
Cc1ccc(C)c(NC(=O)c2cnn(-c3ccc(F)cc3F)c2C2CCNCC2)c1 | inactive: -8.89%
CCOC(=O)c1ccc(NC(=O)CN2C(=O)C(C)(C)c3ccccc32)cc1 | inactive: -11.3%
COc1ccccc1NC(=O)CN(C)S(=O)(=O)c1cccc2cccnc12 | inactive: 1.52%
Cc1ccc(Nc2ccc(N3CCN(C(=O)c4cccc([N+](=O)[O-])c4)CC3)nn2)cc1 | inactive: -8.93%
O=C(CSc1ncc2c(n1)-c1ccccc1N(Cc1ccc(Cl)cc1)S2(=O)=O)c1ccc(Cl)cc1 | inactive: -14.6%
Cc1cccc(C)c1NC(=O)CCSc1nc(-c2ccc3c(c2)OCO3)cc(C(F)(F)F)n1 | inactive: -0.235%
CCCC12CN3CC(CCC)(CN(C1)C3c1ccc(OCc3ccccc3)cc1)C2=O (centres undefined) | inactive: -15.7%
Cc1ccccc1NC(=O)Cn1c(=O)n(CCC(=O)N2CCc3ccccc3C2)c(=O)c2ccccc21 | inactive: -16.9%
Cc1ccc(CNC(=O)CN2Cc3ccccc3C2=O)cc1 | inactive: -19.2%
COc1ccc(NS(=O)(=O)c2cc(-c3onc(C)c3C)ccc2C)c(OC)c1 | inactive: -9.77%

SMILES | activation
CCC1CN(C(=O)N2CCC(C(=O)NCCCc3ccccc3)CC2)c2cc(C)ccc2O1 (centres undefined) | inactive: -17.1%
Cc1cccc(NC(=O)c2cccc(N3CCCS3(=O)=O)c2)c1 | inactive: -1.91%
O=C(COc1ccc(F)cc1)Nc1ccc(OCc2cc(=O)n3ccsc3n2)cc1 | inactive: -2.67%
CCCc1cnc2c(c1SCC(=O)Nc1ccc([N+](=O)[O-])cc1)c(=O)n(C)c(=O)n2C | inactive: -17.1%
CCOC(=O)c1ccccc1NC(=O)N(Cc1ccc(CC)cc1)Cc1cn[nH]c1-c1ccc(OC)cc1 | inactive: -12.5%
Cc1ccc(Cl)cc1NC(=O)c1sc2nc(C)c(C)c(C)c2c1N | inactive: -8.89%
Cc1ccc(C2CC(=O)n3nc(-c4ccc(F)cc4)nc3S2)cc1 (centres undefined) | inactive: -16.8%
COc1ccc(NC(=O)CCS(=O)(=O)c2cc3c(cc2C)NC(=O)CO3)cc1Cl | inactive: -13.4%
COc1cc(NC(=O)Cn2c(-c3ccccc3)cc(C(C)=O)c2C)cc(OC)c1 | inactive: -17.8%
COC(=O)c1ccc2c(c1)sc(=NC(=O)c1ccc(S(=O)(=O)N3CCCCC3)cc1)n2C | inactive: -8.53%
Cc1ccc(-c2cnc(C3CC3)o2)cc1S(=O)(=O)Nc1cccc(C#N)c1 | inactive: -22.9%
COc1ccc(-n2nc(C(=O)NCCc3ccc(Cl)cc3)c3c4ccccc4n(C)c3c2=O)cc1 | inactive: -10.8%
COc1ccc(C2c3c(-c4ccccc4)n[nH]c3C(=O)N2c2ccc(C(=O)O)cc2)c(OC)c1 (centres undefined) | inactive: -9.6%
Cc1ccc(NC(=O)Cn2c(=O)n(CCC(=O)N3CCc4ccccc4C3)c(=O)c3ccccc32)c(C)c1 | inactive: 8.78%
OCCN(CCO)c1nc(N2CCCCC2)c2nc(N(CCO)CCO)nc(N3CCCCC3)c2n1 | inactive: -8.07%
CN(Cc1ccccc1)C(=O)CSc1c2c(nc3ccc(Cl)cc13)CCCC2 | inactive: -14.2%
Cc1ccc(-c2c(CN3CCN(c4cccc(C)c4C)CC3)csc2C)cc1 | inactive: -8.78%
O=S(=O)(NCCS(=O)(=O)N1CCN(c2ccccc2)CC1)c1ccccc1 | inactive: -31.7%
COC(=O)c1ccc(NC(=O)C(C)Sc2nc(=O)cc(N)n2CCc2ccccc2)cc1 (centres undefined) | inactive: -1.73%
